Measured values reported in article PMC6919601, “Identification of Plasmodium dipeptidyl aminopeptidase allosteric inhibitors by high throughput screening” (PLoS ONE, 2019).
The campaign covered roughly 110,000 compounds. About 230 (0.21%) showed an effect of 50% or more. Some of the results follow.

molecular target: DPAP1 (Plasmodium falciparum, UniProt Q8IIJ9); test: primary screen, percent inhibition; read by cleavage of a fluorogenic dipeptide substrate; higher = more effect of the substance; parameters: species or system P. falciparum D10 trophozoite lysates; single well
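Note: 30 min substrate incubation versus DMSO and 10 µM JCP410 controls.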

Sequence of DPAP1 (Q8IIJ9 whole entry, looked up): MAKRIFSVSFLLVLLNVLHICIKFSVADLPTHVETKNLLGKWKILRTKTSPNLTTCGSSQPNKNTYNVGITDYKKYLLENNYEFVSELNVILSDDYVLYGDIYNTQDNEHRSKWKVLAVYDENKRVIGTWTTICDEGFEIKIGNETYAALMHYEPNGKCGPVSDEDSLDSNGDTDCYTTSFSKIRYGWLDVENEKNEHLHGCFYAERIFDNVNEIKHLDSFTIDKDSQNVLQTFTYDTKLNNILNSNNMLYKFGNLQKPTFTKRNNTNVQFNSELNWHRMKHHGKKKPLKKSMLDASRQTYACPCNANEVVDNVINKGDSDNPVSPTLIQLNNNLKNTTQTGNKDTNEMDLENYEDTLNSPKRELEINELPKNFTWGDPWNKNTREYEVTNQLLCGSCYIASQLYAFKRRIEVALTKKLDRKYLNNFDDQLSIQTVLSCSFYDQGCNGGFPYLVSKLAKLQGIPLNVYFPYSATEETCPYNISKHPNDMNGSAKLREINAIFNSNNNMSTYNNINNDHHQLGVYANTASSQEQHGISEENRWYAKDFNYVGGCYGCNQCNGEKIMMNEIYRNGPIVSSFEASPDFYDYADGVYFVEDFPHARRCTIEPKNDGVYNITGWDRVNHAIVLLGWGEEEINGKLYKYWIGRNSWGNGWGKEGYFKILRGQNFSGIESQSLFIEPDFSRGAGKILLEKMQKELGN

Row | SMILES | % Inhibition @ 10 uM [%]
1 | CC1CCN(C(=O)Cn2cnc3c(oc4ccccc43)c2=O)CC1 | -5.11
2 | CCO/C(O)=C1/C(C)=NC2=C(C(=O)CC(c3ccc(OC)cc3)C2)C1c1ccccn1 (stereo not shown) | 22.7
3 | Clc1ccc(COc2ccccc2CNn2cnnc2)cc1 | 2.8
4 | CCn1c(NCc2cccs2)nc2ccccc21 | -1.66
5 | CCc1nnc2sc(-c3ccc(OC)cc3)nn12 | 3.88
6 | CCN(CC)c1ccc2cc(-c3nc4ccccc4[nH]3)c(=N)oc2c1 | -7.09
7 | CCOC(=O)c1cnc2ccc(OC)cc2c1NCc1ccccc1 | 2.17
8 | CCc1ccc(C2=C/C(=C/c3cc(OC)ccc3OC)C(=O)O2)cc1 | -0.169
9 | CCCCOC(=O)NC1CCS(=O)(=O)C1 (stereo not shown) | -0.85
10 | CCOc1ccc(CCNC(=O)C2CCC(=O)N2CCc2ccccc2)cc1OCC (stereo not shown) | -1.79
11 | Cc1ccc(C)c(OCCNC(=O)c2ccc(-c3csc(C)n3)cc2)c1 | 1.84
12 | COc1ccc(OC)c(CN2CCN(c3cccc(C(F)(F)F)c3)CC2)c1 | 3.16
13 | CCOC(=O)N1CCC(NC(=O)NCc2noc3ccccc23)CC1 | 3.28
14 | N#CCNC(=O)[C@H](Cc1cc(I)c(O)c(I)c1)NC(=O)c1ccc(I)cc1 | -4.72
15 | O=C(Nc1cccc(C(F)(F)F)c1)c1cccnc1N1CCOCC1 | 5.03
16 | CCC[C@H](NC(=O)[C@H](CS(=O)(=O)NCC(C)C)NC(=O)OCc1ccccc1)C(=O)c1nc2ccccc2o1 | -1.83
17 | CCOC(=O)C(O)C1CCc2c([nH]c3ccc(C4CCCCC4)cc23)C1=O (stereo not shown) | -0.693
18 | Cc1ccc(S(=O)(=O)N2CCC(C(=O)Nc3nc4c(s3)CC(c3ccccc3)CC4)CC2)cc1 (stereo not shown) | 0.635
19 | CCN1C(=O)S/C(=C/c2cc(Cl)cc(OC)c2O)C1=O | -11.7
20 | COc1cc(C(=O)n2nc(-c3ccco3)nc2NCc2ccccc2Cl)cc(OC)c1OC | -4.75
21 | COc1ccc(C(=O)N/C(=C\c2ccc3c(c2)OCO3)C(=O)O)cc1 | -1.35
22 | COc1ccc(CCNc2oc(COc3cccc(C)c3)nc2C#N)cc1 | -1.98

Row | SMILES | % Inhibition @ 10 uM [%]
23 | COc1ccc2cc(-c3nnc(NCc4ccccc4)s3)c(=O)oc2c1 | -2.92
24 | O=C(CN1CC2CC(C1)c1cccc(=O)n1C2)c1ccc2cc[nH]c2c1 (stereo not shown) | -6.92
25 | O=Cc1cn(CCCOc2ccccc2Cl)c2ccccc12 | -4.35
26 | O=C(Cc1ccccc1)N1CCN(c2ccc(F)cc2)CC1 | -17.2
27 | O=C(Nc1cc([N+](=O)[O-])ccc1Cl)c1cccnc1 | -0.833
28 | O=C(NCc1ccccc1)c1ccccc1C(=O)Nc1cccc2ccccc12 | 1.7
29 | Clc1ccccc1OCCN1CCCCC1 | 2.94
30 | CCOC(=O)C1=C(CN2CCN(C(=O)c3ccco3)CC2)NC(=O)NC1c1ccc(Cl)cc1 (stereo not shown) | -2.83
31 | Cc1cc(Oc2nc3c(C)cccn3c(=O)c2/C=C(\C#N)C(=O)N2CCOCC2)ccc1Cl | -1.43
32 | Cc1cccc(N2CCN(C(=O)/C=C/c3ccc4c(c3)OCO4)CC2)c1C | 1.4
33 | COC(=O)N1c2ccccc2C=Cc2ccccc21 | -2.18
34 | C=Cc1ccc(Cn2c(C(=O)O)c(CNCCCSC3CCCCC3)c3ccccc32)cc1 | -1.44
35 | Cc1ccc(S(=O)(=O)Nc2nc3ccccc3nc2Nc2cccc(C(=O)O)c2)cc1 | 3.01
36 | Cc1nc2ccccc2n1CCc1nc2c3ccccc3nc(NCCc3ccccc3)n2n1 | 4.16
37 | CCCCC(=O)Nc1ccc(N(CC)CC)cc1C | -2.67
38 | CCCc1cc(O)n2nc(Cc3ccccc3)c(-c3ccccc3)c2n1 | -3.44
39 | Cn1c(=O)c2c(nc(NCCOc3ccc(C(C)(C)C)cc3)n2C)n(C)c1=O | 0.484
40 | O=C1NC(c2cccs2)c2c(-c3cccs3)n[nH]c21 (stereo not shown) | -9.18
41 | Cc1nn(-c2ccccc2)c(-n2cccc2)c1C(=O)N1CCOCC1 | -3.35
42 | CC(C)N(Cc1ccccc1)C(=O)CNC(=S)N(CCCN1CCOCC1)Cc1cccs1 | -0.406
43 | NS(=O)(=O)c1ccc2c(c1)C1C=CCC1C(c1ccc(Cl)cc1Cl)N2 (stereo not shown) | 2.05
44 | Cc1nn(-c2ccccc2)c(O)c1/C=N/OCc1ccccc1 | -2.14

Row | SMILES | % Inhibition @ 10 uM [%]
45 | COC(=O)CNc1nc(Cl)nc(Nc2ccc(Cl)cc2)n1 | -2.55
46 | COc1ccccc1C1N(O)C(C)(C)C(c2ccccc2)=[N+]1[O-] (stereo not shown) | 5.23
47 | O=C1CSC2(C(=O)Nc3ccccc32)N1c1ccc(Br)cc1 (stereo not shown) | 2.76
48 | CSc1ccc(CCNC(=O)CN(C)c2nnc(N3CCCC3=O)s2)cc1 | -6.12
49 | COc1ccc(C(=O)Nc2ccc(-c3nc4ncccc4o3)cc2)cc1Br | -5.49
50 | CCOC(=O)c1c(C)[nH]c(C)c1S(=O)(=O)N(CC(C)C)CC(C)C | -6.53
51 | Cc1ccc(C)c(S(=O)(=O)NCC(=O)N2CCN(c3ccccc3)CC2)c1 | -2.92
52 | Cn1c(SCC(=O)NC2CCCC2)nc2c(c1=O)SCC2 | 0.205
53 | C=CCNc1oc(COc2ccccc2OC)nc1C#N | -2.75
54 | N#Cc1c(N)c(C(=O)c2ccc(Br)cc2)n2c1CCC2 | -4.21
55 | Cc1ccc2nc3c(cc(C#N)c(=N)n3CC3CCCO3)c(=O)n2c1 (stereo not shown) | -1.47
56 | CN1CCCN(Cc2cccc(C(F)(F)F)c2)CC1 | -0.0404
57 | COC(=O)c1ccc(NC(=O)c2cccc(Br)c2)cc1 | -3.35
58 | CC(=O)Nc1ccc(NC(=O)C2CC2c2ccccc2)cc1 (stereo not shown) | 5.93
59 | O=C(COCc1cc(-c2ccc3c(c2)OCO3)on1)Nc1cccnc1 | -1.86
60 | OCCSc1nnnn1-c1ccccc1 | -5.35
61 | O=C(O)C1CCCN1C(=O)Cc1ccccc1 (stereo not shown) | -1.69
62 | C=CCN1C(=O)C2(Nc3ccccc3C(=O)N2c2ccccc2OC)c2ccccc21 (stereo not shown) | 2.48
63 | O=C(Cc1ccccc1)NCc1cccs1 | 0.163
64 | Cc1cc(C)c(C(=O)/C=C/c2ccc3c(c2)OCO3)c(O)n1 | -0.197
